Experimental data from PMC3353862.
≈ marks a conversion by molar mass, not a printed value.

Tests used:
[1] = test system: DNA, RNA, and protein synthesis in E. coli tolC cultures; test: macromolecular synthesis (MMS) assay; settings: for specific inhibition of protein synthesis in cells (MMS): E. coli tolC cells
[2] = test system: DNA, RNA, and protein synthesis in E. coli tolC cultures; settings: E. coli tolC mutant and S. aureus cultures; cited from earlier work

Compound	specific inhibition of protein synthesis in cells (MMS) [1]	also measured
CC[C@H]1OC(=O)C[C@@H](O)[C@H](C)[C@@H](O[C@@H]2O[C@H](C)[C@@H](O[C@H]3C[C@@](C)(O)[C@@H](O)[C@H](C)O3)[C@H](N(C)C)[C@H]2O)[C@@H](CC=O)C[C@@H](C)C(=O)/C=C/C(C)=C/[C@@H]1CO[C@@H]1O[C@H](C)[C@@H](O)[C@@H](OC)[C@H]1OC [tylosin, reference compound]		IC50 ([1]; Escherichia coli, read-out: IC50 in MMS assay): 11.6 µg/mL (≈ 12.7 µM)
O=c1[nH]c(-c2ccccn2)nc2c1CN(Cc1ccccc1Cl)CC2 [Compound 323219]	specific inhibition of protein synthesis	MMS data: specificity for protein synthesis in the cell [2]: specific inhibitors of protein synthesis in the cell; IC50 in MMS assay ([1]; E. coli tolC cultures, compound titrated): 6.2 µg/mL (≈ 17.6 µM)
O=c1[nH]c(-c2ccccn2)nc2c1CN(CCc1ccc(Cl)cc1)CC2 [Compound 323370]		MMS data: specificity for protein synthesis in the cell [2]: specific inhibitors of protein synthesis in the cell
O=c1[nH]c(-c2ccccn2)nc2c1CN(Cc1ccc(Cl)cc1)CC2 [Compound 323216]	specific inhibition of protein synthesis	
O=c1[nH]c(-c2ccccn2)nc2c1CN(Cc1cccc(Cl)c1)CC2 [Compound 323220]	specific inhibition of protein synthesis	
COc1ccc(CN2CCc3nc(-c4ccccn4)[nH]c(=O)c3C2)c(C)c1C [Compound 323202]	specific inhibition of protein synthesis	
COc1cc(Cl)cc(CN2CCc3nc(-c4ccccn4)[nH]c(=O)c3C2)c1OC [Compound 323203]	specific inhibition of protein synthesis	
